# This is one part of the list.
# Tested on: PfHDP1 homeodomain (GST-tagged)
# Test: gcPBM binding intensity (ln(normalized median fluorescence intensity)); higher = stronger DNA binding
# In short: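 Binding of GST-tagged P. falciparum DNA-binding domains, expressed in E. coli and used at about 25 μg on average, was carried out for 1 h in 1× PBS containing 1% milk, 0.2 mg/ml BSA, 0.5% salmon testes DNA and 0.03% Triton X-100. The target was an Agilent 4 × 180k array of primer-extended double-stranded 36-bp intergenic genomic probes plus negative controls, read with Alexa488 anti-GST antibody at 488 nm. Binding intensity is the highest Masliner-normalised natural-log median intensity across replicate spots of either probe orientation.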
row,Sequence,gcPBM binding intensity (ln)
1,TTTTTATGTGTATATTATTACATTTACATCTTTAAC [CACACA_negctrl_site1676],6.64
2,ACAAGACAACAAGGAAGTACTCATAAATATATTTGG [XGTACX_site1423],6.82
3,CTTTAAACCCTGAACACACACAAATACACCCAAAAA [CACACA_site4297],6.95
4,AGAGAGAAAGTTATAACATGCAACAATTTTTAGAAG [TGCATGCA_site1],6.83
5,ATAAAATTATCTACATGTACTCATATATATTTGTTT [XGTACX_site5911],7.2
6,TATATATATATATGTGGTACATAAAATTATTATTTT [XGTACX_site4554],9.18
7,AAAAATAAGATATATACACACATATAAATATAAATA [CACACA_site7396],6.47
8,TTATTTATTCTATGTGCATGTTATTTTTTTTTTTCG [TGCATGCA_site262],8.21
9,TTTGTATTAAAAAAAAAAAAAAAAAAAATGAATAAA [TGCATGCA_negctrl_site292],5.82
10,TTTTTTTTTTTTTTTTTTTTTTTTCATTTGATATTA [TGCATGCA_negctrl_site112],6.29
11,ATAACGGAAAAAAAAAGTACATGATATAAACATGAA [XGTACX_site8428],6.01
12,TCAAAAAAAAAAAAAAAAAAAAAAAAAAAAAAAAAA [CACACA_negctrl_site1753],5.92
13,AATAAGCTCACGTGTCGTACATTTTTTAAAACAACC [XGTACX_site4707],6.68
14,AAAATCAAAAAAACAAGTACAAATGTGGACTTTTTT [XGTACX_site5363],6.01
15,TGTTCTATGGTTTGTAGTACTTTAATAAATATAAAT [XGTACX_site7823],6.35
16,GCTCAATTTTTGGGTACACACAAATGTATAAGAATA [CACACA_site7178],6.41
17,TTTTTCTAATTATGCACACATATCAAAATATTCAAT [CACACA_site2749],10.4
18,TATTTATTTTATATATGTACATAATATATTCTTATA [XGTACX_site1619],6.55
19,ATATATATAGAAATATGTACGAAAAAAATATCACAT [XGTACX_site746],6.57
20,TATATATATATATATGTGCACTGAAAGAATTATACA [GTGCAC_site9586],9.76
21,TGACCTGTTCAGGTAACACACATATAAACCCATACA [CACACA_site31],6.81
22,ATGCTATAGGATCTTACACACATTTTTGTAAAAAAA [CACACA_site1868],6.41
23,ATTTATGGAAAAAGAACACACAATCAAACAAAAATA [CACACA_site3707],7.14

row,Sequence,gcPBM binding intensity (ln)
1,TTTTTTTTTTTTTGGTGTACCATAGGTAAAATGATT [XGTACX_site8020],6.07
2,ATATAAATGAATATATGTACATATATATATATATAT [XGTACX_site6361],9.06
3,ACACAATAAACATTATGTACATATAATGTTCTGTGT [XGTACX_site3381],6.2
4,AATGATAATCTATTATGTACACATATATTCTTATGT [XGTACX_site4148],6.22
5,GAAAAAAAAATATCTTGTACTTACATAACTATTGGT [XGTACX_site5326],6.05
6,TAAATTAAAAAACATAAACTATTGGAAACGCATTGA [CACACA_negctrl_site935],6.35
7,AAAGGTTTATCTGATACACACATAAGTGATCAGGTT [CACACA_site6233],6.03
8,CTATATATAAAATATTGTACTTATTTTTATTACATC [XGTACX_site3963],6.15
9,TATACATATGTATGCACACATACATACCCATATAAT [CACACA_site5842],9.42
10,TATTTAAAATATTAAATTTGTAAAGTTCGAGGGAAG [GTGCAC_negctrl_site337],6.38
11,TTTTCTCAATTTTGGTGTACTTTTTTCTTAACACAT [XGTACX_site8918],6.89
12,AAAAGAAATGACAAATTGGATAGATAATAGGGGGTA [GTGCAC_negctrl_site262],6.61
13,AATTTTGATATATATTGTACGCATTTTTAAATGCCA [XGTACX_site7694],6.58
14,AATATATAGGAAAAAGTGCAATAAATGAACAAAATA,8.44
15,TTTAATAAAATTCTAGTGCAAAAAGGAAAAAACAAA [GTGCAC_site9642],10
16,AAAAAAAAAAAAAATACACACATATATAAATAAATA [CACACA_site6459],6.6
17,GAAGTTTTTTAAAGATGTACTTTTTAAAAATAATGT [XGTACX_site1975],6.57
18,TTCTTAATTTAAAATTGTACTTAAGTAATACTTATG [XGTACX_site3928],6.48
19,TTATTTACTTATTGCACACATATAAAATATATTTAT [CACACA_site3101],10.7
20,GGAATAGTGATATATACACACAAATACATATTTATA [CACACA_site6183],6.79
21,AATTAATAAGAAAGGTGTACAGAAAAAAAAAAATAT [XGTACX_site2106],7.04
22,TATTTTTATCAATTCACACATAAATATATTTATATG [CACACA_site5547],6.57

# Reference: the supplement of paper PMC11417369
